The source of these data is patent publication US20110059095A1.

Assay [1] has as its target T1, Peptide F (monkey PAR-2), N-terminal biotinylated (Monkey (Macaca mulatta)).
T1 sequence (peptide, N-terminal biotin via G4S linker): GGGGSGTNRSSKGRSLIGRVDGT
The assay is described as follows: peptide ELISA. A general note: An ELISA detects its analyte on a solid surface through an enzyme-linked reagent.

In assay [2] the target is T2, Peptide G (rat PAR-2), N-terminal biotinylated (Rat (Rattus norvegicus)).
T2 sequence (peptide, N-terminal biotin via G4S linker): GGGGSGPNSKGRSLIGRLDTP
In words: peptide ELISA titration; ELISA titration, antibody 13.3 nM to 0.22 pM, sigmoidal fit.

Assay [3] shares this target. The assay is described as follows: SPR, peptide immobilized; SPR, low-density (<1RU) surface of biotinylated peptide. In general terms: SPR reads the build-up and loss of mass on a sensor chip optically.
Assay [4] deals with T3, Peptide E (mouse PAR-2), N-terminal biotinylated (Mouse (Mus musculus)).
T3 sequence (peptide, N-terminal biotin via G4S linker): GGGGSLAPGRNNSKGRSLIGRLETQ
The assay is described as follows: peptide ELISA titration; ELISA titration, antibody 13.3 nM to 0.22 pM on peptide-coated plate.

The target of assay [5] is T4, Peptide G (rat PAR-2), C-terminal biotinylated (Rat (Rattus norvegicus)).
T4 sequence (peptide, C-terminal biotin via G4S linker): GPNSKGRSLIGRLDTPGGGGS
The assay is described as follows: peptide ELISA titration; ELISA titration, antibody 13.3 nM to 0.22 pM, sigmoidal fit.

Results are given in words; binding and its absence hold for the method and conditions named. Some results given as binding are weak or reduced against the parent protein; the word gives no strength.

B1: H4H588N (antibody, human IgG4, V domains shown)
VH: EVQLLESGGGLVQPGGSLRLSCAASGFTFSSYAMTWVRQAPGKGLYWVSAISGGRGSAYYADSVKGRFTISRDNSKNTLYLQMNSLRAEDTAVYYCAKEGDSGYDLAYWGRGTLVTVSS
VL: DIQMTQSPSSLSASVGDRVTITCRARQGISNNLAWLQQKPGKAPKSLIYAASSLQSGIPSKFSGSGSGTYFTLTISSLQPEDFATYYCQQYKSSPLTFGGGTKVEIK
In the case of B1, the binding entry in assay [1] is reported as “binds”; in assay [2], “no binding (tested: EC50 >50 nM)”; in assay [3], “no binding”.

B2: H4H618N (antibody, human IgG4, V domains shown)
VH: EVQLLESGGGLVQPGGSLRLSCAASGFTFRSYTMTWVRQAPGKGLDWVSGITDSGAGTYYGDSVKGRFTISRDNSKNTLYLQMNSLRAEDTAVYYCVKEGDSGYDLDYWGQGTLVTVSS
VL: DIQMTQSPSSLSASVGDRVTITCRASQGISTYLAWLQQKPGKAPKSLIYATSSLQSGVPSKFSGSRSGTDFTLTISSLQPEDFATYYCQQYKSSPLTFGGGTKVEIK
Turning to B2, the binding entry in assay [1] is reported as “binds”.

B3: H4H591N (antibody, human IgG4, V domains shown)
VH: EVQLLESGGGLVQPGGSLRLSCATSGFTFSRYTMTWVRQAPGKGLFWVSGIGGSGGRAYYADSVKGRFTLSRDNSKNTLYLQMNSLRAEDTAVYYCAKEGDSGYDLDYWGRGTLVTVSS
VL: DIQMTQYPSSLSASVGDRVTITCRARQGISNYLAWLQQKPGKAPKSLIYAASSLQRGVPSKFSGSGSGTDFTLTISSLQPEDSATYYCQQYKISPLTFGGGTKVEIK
As to B3, the binding entry is “no binding (tested: EC50 >50 nM)” in assay [4], “binds” in assay [1], “no binding (tested: EC50 >50 nM)” in assay [5] and “no binding (tested: EC50 >50 nM)” in assay [2].
